{"source": "PubChem BioAssay (NCI)", "test_system": "NCI-H322M lung", "experiment": "DTP human tumour cell line panel, 48 h", "note": "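Compound exposure: 48 hours, 5 concentrations, 96-well plates. Here, GI50 denotes the concentration required for 50% inhibition of growth. TGI denotes the concentration required for complete inhibition of growth.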 Square brackets hold non-standard residues; d marks the D form. Peptide text beside a SMILES is read from it. * marks the point of attachment. Lauroyl = CCCCCCCCCCCC(=O)*; Aib = CC(C)(N)C(=O)O; βAla = NCCC(=O)O", "data": [{"smiles": "CCCCCCCCCCCC(=O)NC(C)(C)C(=O)N1CCCC1C(=O)NC(C)(C)C(=O)NC(C)(C)C(=O)N1CCCC1C(=O)NC(C)(C)C(=O)NC(C)(C)C(=O)N1CCCC1C(=O)NC(C)C(=O)NCCC(=O)NC(C)C(=O)NC(C)(C)C(=O)NC(C)(C)C(=O)NC(C)(C)C(=O)NCCC(=O)NC(C)(C)C(=O)NC(C)(C)C(=O)NC(C)(C)C(=O)NC(C)C(=O)NCCC(=O)O", "note": "(stereo not drawn) (Lauroyl-[Aib]P[Aib][Aib]P[Aib][Aib]PA[βAla]A[Aib][Aib][Aib][βAla][Aib][Aib][Aib]A[βAla]-OH; configuration not given here)", "values": [{"measurement": "GI50", "result": 0.428, "unit": "µM"}, {"measurement": "TGI", "result": 1.29, "unit": "µM"}]}, {"smiles": "CCCn1cnc2c(c1=N)C(c1ccc(Cl)cc1)c1sc3c(CC)cccc3c1O2", "note": "(stereo not drawn)", "values": [{"measurement": "GI50", "result": 3.11, "unit": "µM"}, {"measurement": "TGI", "result": 24.2, "unit": "µM"}]}, {"smiles": "C=C(C=O)[C@@H]1CC[C@]2(CO)CC[C@]3(C)[C@H](CC[C@@H]4[C@@]5(C)CCCNC(C)(C)[C@@H]5CC[C@]43C)[C@@H]12", "values": [{"measurement": "GI50", "result": 29.4, "unit": "µM"}, {"measurement": "TGI", "result": "> 100", "unit": "µM"}]}, {"smiles": "CC1(C)[C@@H](O)CC[C@]2(C)[C@H]3CC[C@@H]4[C@H]5[C@H](C(=O)/C=C\\c6ccccn6)CC[C@]5(O)CC[C@@]4(C)[C@]3(C)CC[C@@H]12", "values": [{"measurement": "GI50", "result": 4.17, "unit": "µM"}, {"measurement": "TGI", "result": 35, "unit": "µM"}]}]}
